Some of the results follow. These are noisy estimates, calculated here from bound and input reads.
biological target: T1, Pho4 (S. cerevisiae) (UniProt P07270); assay: relative binding free energy (BET-seq); higher = weaker binding; conditions: reference: library average
T1 sequence: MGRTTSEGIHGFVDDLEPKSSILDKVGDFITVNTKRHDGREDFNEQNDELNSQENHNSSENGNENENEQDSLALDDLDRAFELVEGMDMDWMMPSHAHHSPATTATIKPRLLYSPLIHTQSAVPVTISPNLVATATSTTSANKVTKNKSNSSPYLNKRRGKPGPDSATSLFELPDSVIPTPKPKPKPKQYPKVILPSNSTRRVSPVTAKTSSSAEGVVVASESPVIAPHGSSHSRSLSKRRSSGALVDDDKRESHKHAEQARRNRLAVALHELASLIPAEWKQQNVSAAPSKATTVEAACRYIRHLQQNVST

Row | Sequence | relative binding free energy
1 | GGAGTCACGTGGCGTG | 0.07 kcal/mol
2 | ATGCGCACGTGTTGTT | -0.12 kcal/mol
3 | GACGGCACGTGGGTGG | -0.07 kcal/mol
4 | GTAAGCACGTGTGTCG | -0.1 kcal/mol
5 | ATGTTCACGTGGCGAT | 0.3 kcal/mol
6 | GGTGACACGTGGAGCT | 0.05 kcal/mol
7 | TTTCGCACGTGTCTTT | 0.05 kcal/mol
8 | GGTAACACGTGATATG | 0.03 kcal/mol
9 | AGCGTCACGTGGCGGA | -0.09 kcal/mol
10 | CGGGTCACGTGTGGCG | 0.12 kcal/mol
11 | ATGTCCACGTGTGTTA | 0.13 kcal/mol
12 | GGGGCCACGTGCTGTG | -0.11 kcal/mol
13 | GTGGGCACGTGCCGTT | -0.14 kcal/mol
14 | GTGTACACGTGCAGTT | -0.06 kcal/mol
15 | GTGGCCACGTGCATGG | -0.11 kcal/mol
16 | GGCGGCACGTGGGAAG | -0.03 kcal/mol
17 | TCAGGCACGTGGTTTA | -0.19 kcal/mol
18 | ATAGGCACGTGTGTGC | -0.16 kcal/mol
19 | GTTGGCACGTGGAAAA | 0.14 kcal/mol
20 | TGGAACACGTGTGCGG | 0.01 kcal/mol
21 | GTAGACACGTGAGTTG | 0.27 kcal/mol
22 | TGATTCACGTGCTGGA | 0.22 kcal/mol
23 | AAAGTCACGTGCTGTG | -0.01 kcal/mol

Row | Sequence | relative binding free energy
24 | TATCGCACGTGGAGTT | -0.01 kcal/mol
25 | ACGGTCACGTGATATG | 0.14 kcal/mol
26 | CTTGGCACGTGTGGGA | -0.03 kcal/mol
27 | CAGGTCACGTGTGAAT | 0.27 kcal/mol
28 | TTGCACACGTGTGTGT | 0.14 kcal/mol
29 | TTTGTCACGTGTCTTT | -0.04 kcal/mol
30 | AAAGGCACGTGGGTGT | -0.23 kcal/mol
31 | AGGCGCACGTGTTGTT | -0.03 kcal/mol
32 | TTCGCCACGTGTGGAG | 0.09 kcal/mol
33 | TGGAGCACGTGCGGTG | -0.09 kcal/mol
34 | TGTGCCACGTGTGTGC | -0.13 kcal/mol
35 | GAGGACACGTGTTCGT | 0.15 kcal/mol
36 | TTCTGCACGTGGGAGG | -0.08 kcal/mol
37 | GGTCTCACGTGGTAGT | 0.25 kcal/mol
38 | TTTAACACGTGCTGTT | -0.04 kcal/mol
39 | GTATACACGTGGTGTC | -0.03 kcal/mol
40 | GAACTCACGTGGGGAG | 0.19 kcal/mol
41 | GTTGCCACGTGGCTTT | -0.11 kcal/mol
42 | TGGATCACGTGCGATG | 0.18 kcal/mol
43 | TTTATCACGTGGCTCG | 0.08 kcal/mol
44 | TACAGCACGTGGGGGG | -0.25 kcal/mol
45 | TGTTGCACGTGCTTCT | -0.05 kcal/mol
46 | TGTTACACGTGTTTCT | 0.03 kcal/mol

Row | Sequence | relative binding free energy
47 | ATCGACACGTGGGTTT | -0.02 kcal/mol
48 | CTTAGCACGTGGTCGG | -0.14 kcal/mol
49 | GTGGACACGTGGTCGA | -0.09 kcal/mol
50 | TCTAACACGTGTGGTA | 0.03 kcal/mol
51 | CTTGGCACGTGAGGTC | 0.12 kcal/mol
52 | TTCGCCACGTGGTATT | -0.09 kcal/mol
53 | TTGAGCACGTGTTCTA | -0.02 kcal/mol
54 | TTGGTCACGTGAGCCG | 0.15 kcal/mol
55 | AATTTCACGTGCTATG | 0.11 kcal/mol
56 | TAGGTCACGTGATAAG | 0.22 kcal/mol
57 | CGTTCCACGTGTGTTT | 0.1 kcal/mol
58 | AATTGCACGTGTAAAG | 0.05 kcal/mol
59 | AATGGCACGTGTAGAT | 0.05 kcal/mol
60 | ACGGTCACGTGGAAAG | 0.14 kcal/mol
61 | AGGGGCACGTGGGTCC | -0.33 kcal/mol
62 | TTATACACGTGGTCTT | -0.15 kcal/mol
63 | TATAGCACGTGGGGGT | -0.19 kcal/mol
64 | CTGGTCACGTGGAGTT | 0.25 kcal/mol
65 | TTAGTCACGTGGCTCG | 0.02 kcal/mol
66 | GTGCTCACGTGGTGTC | 0.07 kcal/mol
67 | AGTTGCACGTGGAGGG | -0.06 kcal/mol
68 | TGGTGCACGTGCTGTG | -0.04 kcal/mol
69 | ATTGACACGTGGTCAT | -0.05 kcal/mol

Row | Sequence | relative binding free energy
70 | TTATTCACGTGGTACT | 0.19 kcal/mol
71 | CGCTGCACGTGGGGGA | -0.11 kcal/mol
72 | GTTTACACGTGGTAGG | 0.15 kcal/mol
73 | TTTGGCACGTGAGGCA | 0.17 kcal/mol
74 | TCTAACACGTGGAGGT | 0 kcal/mol
75 | TTTAGCACGTGGTATT | -0.13 kcal/mol
76 | TCTGGCACGTGCGGGA | -0.13 kcal/mol
77 | TGGGTCACGTGGTGCA | 0.08 kcal/mol
78 | CGGGGCACGTGAGAGA | 0.19 kcal/mol
79 | GGATTCACGTGATTTA | 0.45 kcal/mol
80 | TTGATCACGTGTAAAG | 0.27 kcal/mol
81 | GATGGCACGTGGCGAG | -0.16 kcal/mol
82 | TTGCTCACGTGGACGT | 0.2 kcal/mol
83 | CGTGGCACGTGGTTGA | -0.2 kcal/mol
84 | TATTTCACGTGGCAGT | 0.09 kcal/mol
85 | TTTTGCACGTGCGCGG | -0.12 kcal/mol
86 | ATGGGCACGTGTGGAT | 0.01 kcal/mol
87 | TCGAGCACGTGCGGTG | -0.14 kcal/mol
88 | AGTAACACGTGGGGTA | -0.2 kcal/mol
89 | GTGAACACGTGGATGT | -0.01 kcal/mol
90 | TGAGTCACGTGTGGCG | 0.11 kcal/mol
91 | GAGTACACGTGTTGTG | 0.1 kcal/mol
92 | CTAGACACGTGTGGGG | 0.1 kcal/mol

Row | Sequence | relative binding free energy
93 | CGTGGCACGTGCTGTG | -0.16 kcal/mol
94 | CGGGACACGTGGTAGG | -0.02 kcal/mol
95 | GTTCTCACGTGGGTAA | -0.01 kcal/mol
96 | AATCTCACGTGATGTG | 0.26 kcal/mol
97 | TGTATCACGTGACTTG | 0.26 kcal/mol
98 | GAGCTCACGTGTTGGT | 0.31 kcal/mol
99 | GATTACACGTGAGATG | 0.45 kcal/mol
100 | TTACGCACGTGAGTGC | 0.17 kcal/mol
101 | GAAGACACGTGTGTTT | 0.02 kcal/mol
102 | GAGATCACGTGGCGTG | 0.22 kcal/mol
103 | GGGGTCACGTGGATAT | 0.2 kcal/mol
104 | ATGTCCACGTGAATGT | 0.15 kcal/mol
105 | CGGTTCACGTGGGGAG | 0.2 kcal/mol
106 | TTTTTCACGTGTGATG | 0.28 kcal/mol
107 | TTGGCCACGTGGGGAG | -0.1 kcal/mol
108 | GGGTACACGTGGAGAT | 0.27 kcal/mol
109 | TTGCGCACGTGGTAAG | -0.13 kcal/mol
110 | TAGATCACGTGGCTGT | 0.03 kcal/mol
111 | CATGGCACGTGGGATT | -0.09 kcal/mol
112 | TTGGACACGTGGCGGG | -0.07 kcal/mol
113 | GGCTTCACGTGGAGTT | 0.32 kcal/mol
114 | AGGCGCACGTGGTATT | -0.28 kcal/mol
115 | GCAGTCACGTGTTTTG | 0.19 kcal/mol
